# Laboratory results as given in PubChem BioAssay AID1347417 (National Center for Advancing Translational Sciences (NCATS), 2020).
# Screen size: about 120,000 compounds; about 5,300 (4.4%) were called active. The inconclusive results got no clear call from the source; some entries with a clear call stand among them for comparison. Calls follow the shape of the dose curve; as a rule, active = well fitted inhibition curve with a large enough effect; inconclusive = small, poorly fitted or top-dose-only effect; inactive = no such curve, though single readings can be large or run the other way. Potencies beside an inconclusive call are fits to weak or partial responses and may not hold up.
# Experiment: qHTS Primary assay for Inhibitors of Plasmodium falciparum Dd2 growth in vitro; also: nearly all actives have a fitted effect of over 65% in size
# Details: P. falciparum Dd2 growth, SYBR Green, 72 h; series mostly up to 28.9 µM
# In short: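 Readout: SYBR Green fluorescence, 485 nm excitation, 535 nm emission, after ~16 h lysis at 37C. Before that, Dd2-infected red cells (2.5% hematocrit) grew 72 h with compound, 29 uM top final concentration.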
# Potency is read from the fitted curve at half-maximal effect; tags tell the direction and shape of the fitted curve.
row,Structure (SMILES),Potency
1,COc1ccc(C(=O)N2C[C@@H](Oc3ccccc3)C[C@H]2C(=O)NC2CC2)c(OC)c1,inactive
2,Cc1oc(C)c2c(=O)cc(-c3ccc4c(c3)OCO4)cc(OC(=O)c3ccccc3Br)c12,"inconclusive: 10 µM [inhibitor, single point]"
3,COc1ccc(-n2nc(C3CCCN(C(=O)Nc4ccc(Cl)cc4)C3)[nH]c2=O)cc1 (configuration not stated),inactive
4,CC(=O)N1CC2(CCCN(CC3CC3)C2)Cc2ccccc21 (configuration not stated),"inconclusive: 11.2 µM [inhibitor, single point]"
5,Cc1cc(=O)n(CC(=O)Nc2cc(F)ccc2F)c(-c2ccccc2)n1,inactive
6,CNc1ncc(C(=O)N2CCCC(CCc3ccc(F)cc3)C2)cn1 (configuration not stated),"inconclusive: 20 µM [inhibitor, single point]"
7,CNC(=O)[C@@H]1CN(C(=O)c2ccn(C)n2)C[C@H]1COC,inactive
8,CC(C)CCN1C(=O)CC[C@]2(C(=O)N3CCN(c4ccc(F)cc4)CC3)CCCC[C@@H]12,active: 10 µM
9,Cc1ccc(CC(=O)N2[C@@H]3CC[C@H]2CC(NC(=O)c2ccncc2)C3)cc1 (some centres not stated),inactive
10,CCc1nc2c(c(-c3ccc(Cl)cc3)n1)CN(Cc1ccccn1)CC2,"inconclusive: 7.08 µM [inhibitor, partial curve, poor fit]"
11,CCc1nc(NC(=O)C[C@H]2NC(=O)c3ccccc3NC2=O)sc1C,"inconclusive: 15.8 µM [inhibitor, partial curve, poor fit]"
12,CC1=C[C@@H](CNC(=O)c2ccc(C#N)cc2)[C@H](C(C)C)C[C@H]1Cc1nnc(-c2ccncc2)o1,"inconclusive: 8.91 µM [inhibitor, partial curve, poor fit]"
13,CC1CNC(Cc2ccccc2)CN1C(=O)OC(C)(C)C (configuration not stated),"inconclusive: 7.94 µM [inhibitor, partial curve, poor fit]"
14,O=C1COc2cc(C(=O)NC3CC(c4nnc(CO)n4C4CC4)C3)ccc2N1 (configuration not stated),active: 6.31 µM
15,CN(C)c1ccc(CNC(=O)c2cc3cc(S(=O)(=O)N4CCCCC4)ccc3n2C)cc1,"inconclusive: 17.8 µM [inhibitor, single point]"
16,COc1ccc(CNC(=O)N2CCCC(Cc3noc(-c4ccccn4)n3)C2)cc1 (configuration not stated),inactive
17,CCn1cc(C(=O)NCc2ccc(C)cc2)c(=O)c2cc(S(=O)(=O)N3CCC(C)CC3)ccc21,inactive
18,CSc1cccc(NC(=O)C2CCCN(c3cnc4nc(C)c(C)nc4c3)C2)c1 (configuration not stated),"inconclusive: 0.141 µM [inhibitor, partial curve, poor fit]"
19,Cc1ccc(CNS(=O)(=O)c2ccc3c(c2)CCN3S(C)(=O)=O)cc1,"inconclusive: 17.8 µM [inhibitor, single point]"
20,COc1ccc2nc(N(Cc3cccnc3)C(=O)c3ccc4c(c3)OCCO4)sc2c1,"inconclusive: 11.2 µM [inhibitor, partial curve]"
21,CC(C)OCCCNC(=O)CCC1CCN(C(=O)c2ccccc2F)CC1,inactive

row,Structure (SMILES),Potency
1,CN(C)c1nc2c(c(=O)[nH]1)CCN(Cc1cc(F)c(F)cc1F)CC2,"inconclusive: 3.98 µM [inhibitor, single point]"
2,CCCC(=O)N1Cc2ccccc2CC2(CCCN2Cc2cccnc2)C1 (configuration not stated),"inconclusive: 10 µM [inhibitor, single point]"
3,COc1ccc([C@H](C)NC(=O)c2c(C)noc2-c2cccs2)cc1,"inconclusive: 2.24 µM [inhibitor, single point]"
4,CSc1ccccc1-c1nc(C2CCOC2)no1 (configuration not stated),inactive
5,O=C(Cc1cccc(F)c1)Nc1cccc(-c2nnc3n2CCCC3)c1,"inconclusive: 3.55 µM [inhibitor, full curve, poor fit]"
6,O=C1NC(=NC2CCCC2)C2(CCN(CC3CC3)C2)N1c1cc(F)cc(F)c1 (configuration not stated),"inconclusive: 1 µM [inhibitor, full curve, poor fit]"
7,CCCNC(=O)N1CCC(N2CC(OCC3CC3)C23CCCCC3)CC1 (configuration not stated),active: 8.91 µM
8,CN(C)c1nc2c(c(=O)[nH]1)CCN(Cc1ccc(Cl)c(F)c1)CC2,"inconclusive: 3.98 µM [inhibitor, single point]"
9,O=C(Cn1cccc1-c1nc(-c2ccccc2)no1)Nc1ccccc1,"inconclusive: 3.98 µM [inhibitor, single point]"
10,COc1ccc(CNC(=O)C[C@@H]2CCNC[C@@H]2Cc2cc(COc3ccccc3)on2)cc1,"inconclusive: 12.6 µM [inhibitor, single point]"
11,CC(=O)N1C[C@@H]2C[C@H](C1)c1ccc(NC(=O)COc3ccccc3)c(=O)n1C2,inactive
12,C=CCOC(=O)C1=C(C)N=C2SC=C(CC(=O)NC3CC3)N2C1c1cc(C)ccc1C (configuration not stated),"inconclusive: 3.98 µM [inhibitor, single point]"
13,COc1ccc(OCc2nc3c(n2Cc2ccccc2)C(=O)N(Cc2ccccc2F)CCN3)cc1OC,"inconclusive: 5.01 µM [inhibitor, partial curve]"
14,Cn1cc(-c2cn(C)c(=O)n3cc(COc4ccccc4)nc23)cn1,"inconclusive: 3.98 µM [inhibitor, full curve]"
15,COCCN1CCCC2(CCN(c3nc4c(c(=O)[nH]c(=O)n4C)n3C)C2)C1=O (configuration not stated),inactive
16,O=C(NCc1nnc2c(-c3nc(C4CC4)no3)cccn12)c1cccc(Cl)c1,"inconclusive: 3.98 µM [inhibitor, partial curve, poor fit]"
17,COCC(=O)N[C@@H]1CN(C(=O)Cc2cccc(OC)c2)CC[C@@H]1c1nc(C)no1,"inconclusive: 1 µM [inhibitor, partial curve]"
18,COc1ccccc1CNC(=O)C1CCCN(c2nnc(-n3c(C)ccc3C)s2)C1 (configuration not stated),"inconclusive: 11.2 µM [inhibitor, single point]"
19,COCCC(=O)N[C@@H]1CN(c2ccncn2)C[C@H]1CN(C)C,inactive
20,COc1ccc(CNC(=O)c2cnc3c(c2)N(C(=O)CCc2ccccc2)CCC3)cc1OC,"inconclusive: 14.1 µM [inhibitor, partial curve, poor fit]"
21,COc1ccc(CN2CCC[C@H]2c2nc(-c3cncnc3N)no2)cc1,"inconclusive: 31.6 µM [inhibitor, single point]"
